# Assay results reported in patent publication US20230416345A1 (NAVIGO PROTEINS, published 2023).
# B1: CID 212704 (SEQ ID NO: 42), tetramer of SEQ ID NO: 15 (designed binder)
# chain: IAAKFDEAQQAADKEILHLPNLTEQQRNYFRQWLRDDPSVSPTVLGTAQQLNDSQAPKIAAKFDEAQQAADKEILHLPNLTEQQRNYFRQWLRDDPSVSPTVLGTAQQLNDSQAPKGGGSIAAKFDEAQQAADKEILHLPNLTEQQRNYFRQWLRDDPSVSPTVLGTAQQLNDSQAPKIAAKFDEAQQAADKEILHLPNLTEQQRNYFRQWLRDDPSVSPTVLGTAQQLNDSQAPKSAWSHPQFEK
# notes: not shown: C-terminal Strep-tag (detected with anti-StrepTag antibody)
# Tests used:
# human collagen type I = target: T1, human collagen type I (human, UniProt P02452 partial chain; P08123 80-1119); assay: ELISA, h Col I coated on the plate, A 450-600 nm
# T1 construct: Bought; also called h Col I; type I collagen
# Description: (§1) High binding plates (Greiner, 781061) were immobilized with 2.5 μg/ml recombinant human collagen type II (h Col II, Chondrex, CHX-20051), rabbit collagen type II (rbCol II, prepared from rabbit eyes), porcine collagen type II (p Col II, prepared from porcine eyes), human collagen type I, (h Col I, Sigma, C5483-1MG), human collagen type V (h Col V, Abcam, ab7537), human collagen type III (h Col Ill, Abcam, ab7535) and 67B89 (domain of fibronectin, produced in E. coli) respectively over night at 4° C. ELISA-plates were washed 3 times with PBST (PBS+ 0.1% Tween) and blocked with 3% BSA/0.5% Tween/PBS 2 h at RT. […] Plates were washed with PBST and incubated with biotinylated anti-StrepTag-ab (Antikörper-online, ABIN1573895) with a dilution of 1:10.000 for 1 h at rt. The binding was visualized with a-rabbit-IgG-HRP (Sigma, A9169) with a dilution of 1:10.000 and as substrate TMB Plus von KEM EN TEC Diagnostic, Kat-Nr. 4395.
# (§2) Results. ELISA analysis clearly confirms the specific binding to type II collagen. […] No unspecific binding to type I collagen, type III collagen, type V collagen or to a domain of fibronectin (67B89) was detected (FIG. 2).
# human collagen type V = target: T2, human collagen type V (human, UniProt P20908 559-1570; P05997 216-1229); assay: ELISA, h Col V coated on the plate, A 450-600 nm
# T2 construct: Bought; also called h Col V; type V collagen
# Description: as §1, §2
# Chain of human collagen type V (P20908 559-1570, chain 1 of 2): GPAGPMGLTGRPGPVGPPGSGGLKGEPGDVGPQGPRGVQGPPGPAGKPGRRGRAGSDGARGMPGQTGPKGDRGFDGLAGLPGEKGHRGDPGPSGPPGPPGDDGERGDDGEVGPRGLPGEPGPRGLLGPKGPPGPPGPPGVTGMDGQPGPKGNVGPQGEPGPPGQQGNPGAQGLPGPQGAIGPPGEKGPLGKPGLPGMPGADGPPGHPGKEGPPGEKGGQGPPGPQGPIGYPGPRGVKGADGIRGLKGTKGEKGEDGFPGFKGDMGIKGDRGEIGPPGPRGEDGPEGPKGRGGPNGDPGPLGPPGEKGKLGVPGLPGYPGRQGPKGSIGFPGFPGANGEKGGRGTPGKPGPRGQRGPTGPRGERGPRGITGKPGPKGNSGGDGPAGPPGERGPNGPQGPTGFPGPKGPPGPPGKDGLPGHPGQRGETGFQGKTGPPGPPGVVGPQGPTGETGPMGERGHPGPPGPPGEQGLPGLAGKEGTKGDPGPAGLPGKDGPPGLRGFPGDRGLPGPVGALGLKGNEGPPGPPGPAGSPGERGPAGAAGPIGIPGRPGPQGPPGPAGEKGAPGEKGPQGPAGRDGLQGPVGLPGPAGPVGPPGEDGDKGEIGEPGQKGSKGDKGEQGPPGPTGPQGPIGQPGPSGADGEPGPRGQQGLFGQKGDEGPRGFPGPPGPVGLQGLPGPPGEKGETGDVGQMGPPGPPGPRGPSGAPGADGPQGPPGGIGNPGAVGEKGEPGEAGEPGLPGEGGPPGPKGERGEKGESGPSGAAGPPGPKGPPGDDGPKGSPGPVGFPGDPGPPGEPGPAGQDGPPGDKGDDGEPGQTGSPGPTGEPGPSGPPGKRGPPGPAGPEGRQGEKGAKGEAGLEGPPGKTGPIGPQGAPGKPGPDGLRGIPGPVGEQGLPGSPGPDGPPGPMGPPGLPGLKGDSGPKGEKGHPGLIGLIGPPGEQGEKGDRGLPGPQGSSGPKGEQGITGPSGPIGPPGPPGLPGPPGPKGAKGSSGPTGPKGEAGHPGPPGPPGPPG
# Chain of human collagen type V (P05997 216-1229, chain 2 of 2, further chain): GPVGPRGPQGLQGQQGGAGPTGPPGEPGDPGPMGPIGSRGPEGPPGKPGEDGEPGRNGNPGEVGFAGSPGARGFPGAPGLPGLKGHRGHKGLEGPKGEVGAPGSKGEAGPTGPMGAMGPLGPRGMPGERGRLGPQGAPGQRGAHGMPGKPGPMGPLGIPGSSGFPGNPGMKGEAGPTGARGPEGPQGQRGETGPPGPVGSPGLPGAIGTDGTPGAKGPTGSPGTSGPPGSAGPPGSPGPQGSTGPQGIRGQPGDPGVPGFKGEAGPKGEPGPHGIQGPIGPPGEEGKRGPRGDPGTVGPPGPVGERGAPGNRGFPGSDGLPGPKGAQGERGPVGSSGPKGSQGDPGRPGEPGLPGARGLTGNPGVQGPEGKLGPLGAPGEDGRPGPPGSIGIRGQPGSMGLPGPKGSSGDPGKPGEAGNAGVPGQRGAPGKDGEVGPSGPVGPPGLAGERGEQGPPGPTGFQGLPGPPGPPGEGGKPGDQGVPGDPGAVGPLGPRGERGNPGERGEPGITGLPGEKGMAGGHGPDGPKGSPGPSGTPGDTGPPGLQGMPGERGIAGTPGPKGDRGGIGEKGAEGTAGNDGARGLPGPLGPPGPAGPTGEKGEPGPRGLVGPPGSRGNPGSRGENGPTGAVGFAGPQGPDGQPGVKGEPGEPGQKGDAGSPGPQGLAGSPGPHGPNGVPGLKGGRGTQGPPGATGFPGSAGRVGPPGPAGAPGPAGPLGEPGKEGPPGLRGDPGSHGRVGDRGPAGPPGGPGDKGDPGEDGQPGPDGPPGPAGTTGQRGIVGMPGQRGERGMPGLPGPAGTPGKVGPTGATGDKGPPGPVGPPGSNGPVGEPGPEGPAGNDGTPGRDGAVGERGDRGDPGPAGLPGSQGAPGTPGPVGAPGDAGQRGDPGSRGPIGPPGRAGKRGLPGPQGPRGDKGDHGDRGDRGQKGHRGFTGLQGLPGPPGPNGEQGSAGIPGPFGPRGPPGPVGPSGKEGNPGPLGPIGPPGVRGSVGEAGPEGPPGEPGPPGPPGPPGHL
# Chain of human collagen type I (P02452 162-1218, chain 1 of 2): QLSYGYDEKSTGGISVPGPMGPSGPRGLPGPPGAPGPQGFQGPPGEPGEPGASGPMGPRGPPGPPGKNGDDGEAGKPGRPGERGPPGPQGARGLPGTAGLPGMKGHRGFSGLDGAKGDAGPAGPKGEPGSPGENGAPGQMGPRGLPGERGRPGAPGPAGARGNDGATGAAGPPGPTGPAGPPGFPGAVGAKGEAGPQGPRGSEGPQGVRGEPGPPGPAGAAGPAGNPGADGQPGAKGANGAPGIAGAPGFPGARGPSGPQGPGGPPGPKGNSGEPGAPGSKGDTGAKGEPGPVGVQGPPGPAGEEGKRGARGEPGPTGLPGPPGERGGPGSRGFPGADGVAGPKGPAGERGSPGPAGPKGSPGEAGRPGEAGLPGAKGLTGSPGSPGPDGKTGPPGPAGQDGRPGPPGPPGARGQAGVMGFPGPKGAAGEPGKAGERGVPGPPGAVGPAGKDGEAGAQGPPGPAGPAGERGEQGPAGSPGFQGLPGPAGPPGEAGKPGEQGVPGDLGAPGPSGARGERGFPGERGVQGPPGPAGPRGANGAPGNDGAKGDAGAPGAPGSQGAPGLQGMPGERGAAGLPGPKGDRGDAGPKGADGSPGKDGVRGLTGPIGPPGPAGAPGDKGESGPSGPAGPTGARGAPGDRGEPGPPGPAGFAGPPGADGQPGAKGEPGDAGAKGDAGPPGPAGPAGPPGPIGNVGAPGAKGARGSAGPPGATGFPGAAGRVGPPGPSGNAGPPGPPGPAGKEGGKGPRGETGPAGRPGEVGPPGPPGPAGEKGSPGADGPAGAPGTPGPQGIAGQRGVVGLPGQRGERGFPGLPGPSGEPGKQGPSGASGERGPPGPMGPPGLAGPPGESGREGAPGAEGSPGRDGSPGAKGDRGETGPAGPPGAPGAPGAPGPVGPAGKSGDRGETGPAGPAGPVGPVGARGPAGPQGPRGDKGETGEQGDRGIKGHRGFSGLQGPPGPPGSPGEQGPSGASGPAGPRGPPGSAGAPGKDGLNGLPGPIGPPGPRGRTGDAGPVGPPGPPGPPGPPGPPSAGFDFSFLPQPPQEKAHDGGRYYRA
# Chain of human collagen type I (P08123 80-1119, chain 2 of 2, further chain): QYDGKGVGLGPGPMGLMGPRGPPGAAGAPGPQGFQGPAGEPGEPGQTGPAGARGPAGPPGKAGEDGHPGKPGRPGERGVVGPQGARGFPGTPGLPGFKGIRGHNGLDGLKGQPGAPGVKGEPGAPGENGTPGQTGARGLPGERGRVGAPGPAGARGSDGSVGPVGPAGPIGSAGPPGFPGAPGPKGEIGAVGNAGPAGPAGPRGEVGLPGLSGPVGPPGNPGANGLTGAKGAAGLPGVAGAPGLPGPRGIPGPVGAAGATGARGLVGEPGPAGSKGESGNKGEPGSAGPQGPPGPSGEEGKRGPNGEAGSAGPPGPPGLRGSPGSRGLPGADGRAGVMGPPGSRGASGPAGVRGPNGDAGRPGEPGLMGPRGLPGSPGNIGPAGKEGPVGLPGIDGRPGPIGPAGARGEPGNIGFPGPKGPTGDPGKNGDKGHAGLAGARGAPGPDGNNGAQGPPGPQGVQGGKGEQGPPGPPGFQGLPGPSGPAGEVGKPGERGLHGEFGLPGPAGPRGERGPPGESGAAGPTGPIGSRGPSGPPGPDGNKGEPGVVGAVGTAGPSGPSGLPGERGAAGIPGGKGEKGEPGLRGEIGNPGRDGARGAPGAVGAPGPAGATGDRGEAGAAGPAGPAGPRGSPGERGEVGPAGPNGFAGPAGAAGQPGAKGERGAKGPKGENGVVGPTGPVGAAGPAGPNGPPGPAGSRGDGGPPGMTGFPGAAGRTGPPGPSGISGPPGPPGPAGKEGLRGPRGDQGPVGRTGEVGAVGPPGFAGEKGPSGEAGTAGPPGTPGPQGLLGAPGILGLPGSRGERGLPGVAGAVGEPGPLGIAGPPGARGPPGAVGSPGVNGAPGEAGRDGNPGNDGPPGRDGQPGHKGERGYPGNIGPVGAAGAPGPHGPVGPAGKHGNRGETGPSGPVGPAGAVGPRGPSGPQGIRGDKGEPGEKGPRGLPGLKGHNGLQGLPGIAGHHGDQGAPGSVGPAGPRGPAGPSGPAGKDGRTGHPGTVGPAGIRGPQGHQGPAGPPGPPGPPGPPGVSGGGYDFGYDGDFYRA
binder,measurement,setting,value
B1,binding result,human collagen type I,no binding (tested: 100 nM)
same,binding result,human collagen type V,no binding (tested: 100 nM)
